Experimental data taken from patent US20220117938A1, “COMBINATON THERAPY WITH A DON PRODRUG AND AN IMMUNE CHECKPOINT INHIBITOR” (DRACEN PHARMACEUTICALS, INC., priority 2019, published 2022).
Further values from the same series stand in other lists.

System: MC-38 tumors
Test: Anti-tumor efficacy of Compound 1 with and without anti-PD-1 in the subcutaneous MC-38 model (Example 2D)
Assay type: in vivo, Mus musculus
Method: Female C57BL/6 mice were inoculated subcutaneously at right flank with MC-38 cells for tumor development. Five days after tumor inoculation, 48 mice with tumor size ranging from 50-100 mm^3 (average tumor size 72 mm^3) were selected and assigned into six groups using stratified randomization with 8 mice per group based upon their tumor volumes. The treatments were started from the day of randomization (defined as D0), Group 1 was treated with Vehicle (Tween 80:Ethanol:Saline—5:5:90 v/v/v), s.c., qd×14, Group 2 was treated with Anti-PD-1 10 mg/kg i.p. q4d×4, Group 3 was treated with Compound 1 0.3 mg/kg s.c. q.d.×14, Group 4 was treated with Compound 1 0.3 mg/kg s.c. q.d.×14+Anti-PD-1 10 mg/kg i.p. q4d×4, Group 5 was treated with Compound 1 1 mg/kg s.c. q.d.×14, Group 6 was treated with Compound 1 1 mg/kg s.c. q.d.×14+Anti-PD-1 10 mg/kg i.p. q4d×4. The tumor sizes were measured three times per week during the treatment. The entire study was terminated on D37 after start of the treatment.
Animal Species: Mus musculus; Strain: […]; Age: 6-8 weeks; Sex: female; Body weight (at treatment start): 18-22 g.
The MC-38 tumor cells were maintained in vitro as a monolayer culture in DMEM medium supplemented with 10% heat inactivated fetal bovine serum and 100 μg/mL penicillin streptomycin at 37° C. in an atmosphere of 5% CO2 in air. The tumor cells were routinely subcultured twice weekly by trypsin-EDTA treatment. The cells growing to a confluency around 70%-80% were harvested and counted for tumor inoculation. The cultured MC-38 were harvested, re-suspended in base medium at a density of 1×10^7 cells/mL with viability >90%. Each mouse was inoculated subcutaneously at the right flank with 1×10^6 cells in 0.1 ml base medium for tumor development.
The treatments were started on day 5 after tumor inoculation when the tumor size reached 50-100 mm^3 (average tumor size 72 mm^3). Each group consisted of 8 tumor bearing mice.
The testing article was administrated at the dosing volume indicated to the mice according to the predetermined regimen as shown Table 2D-1. Testing article formulations were prepared according to standard procedures. Details regarding tumor measurements and endpoints, and statistical analysis are provided in EXAMPLE 3.
Tumor sizes were measured three times a week in two dimensions using a caliper, and the volume expressed in mm^3 using the formula: V=0.5 a×b^2 where a and b are the long and short diameters of the tumor, respectively. The tumor sizes were then used for the calculations of both tumor growth inhibition (TGI) and T/C values.
TGI is calculated for each group using the formula: […]
TVTreatment_DayN is the average tumor volume of a treatment group on a given day, TVTreatment_Day0 is the average tumor volume of the treatment group on the first day of treatment, TVVehicle_DayN is the average tumor volume of the vehicle control group on a given day, and TVVehicle_Day0 is the average tumor volume of the vehicle group on the first day of treatment.
The T/C value (in percent) is an indication of antitumor effectiveness, T/C (%)=RTVTreatment/RTVControl×100% (RTVTreatment: the mean RTV of the treatment group; RTVControl: the mean RTV of the vehicle treated group). RTV (relative tumor volume)=TVDayN/TVDay0. TVDayN and TVDay0 is the tumor volume on day N and Day 0 respectively. T/C (%)≤42% is considered as significant antitumor activity and <10% is considered as highly significant antitumor activity by the National Cancer Institute criteria.
Animal survival curve: When an individual animal reached to the termination endpoint (TV>2000 mm^3), the mouse was euthanized. The time from treatment initiation to the termination was deemed as its survival time. Survival curve was plotted by Kaplan-Meier method. Median survival time (MST) was calculated for each group. Increase of life span (ILS) was calculated according to the following formula: […]
ILS (%)>25% is considered as a biologically significant survival benefit. […]

CC(=O)N[C@@H](Cc1c[nH]c2ccccc12)C(=O)N[C@@H](CCC(=O)C=[N+]=[N-])C(=O)OC(C)C [Compound 1, Isopropyl (S)-2-((S)-2-acetamido-3-(1H-indol-3-yl)propanamido)-6-diazo-5-oxohexanoate]
Tumor volume (Mean ± SEM) (Day 0, Cpd. 1 0.3 mg/kg qd x 14, s.c.): 71 ± 6 mm^3
Tumor volume (Mean ± SEM) (Day 0, Cpd. 1 1 mg/kg qd x 14, sc): 71 ± 6 mm^3
Tumor volume (Mean ± SEM) (Day 2, Cpd. 1 0.3 mg/kg qd x 14, s.c.): 88 ± 5 mm^3
Tumor volume (Mean ± SEM) (Day 2, Cpd. 1 1 mg/kg qd x 14, sc): 86 ± 4 mm^3
Tumor volume (Mean ± SEM) (Day 5, Cpd. 1 0.3 mg/kg qd x 14, s.c.): 101 ± 5 mm^3
Tumor volume (Mean ± SEM) (Day 5, Cpd. 1 1 mg/kg qd x 14, sc): 91 ± 5 mm^3
Tumor volume (Mean ± SEM) (Day 7, Cpd. 1 0.3 mg/kg qd x 14, s.c.): 131 ± 8 mm^3
Tumor volume (Mean ± SEM) (Day 7, Cpd. 1 1 mg/kg qd x 14, sc): 89 ± 3 mm^3
Tumor volume (Mean ± SEM) (Day 9, Cpd. 1 0.3 mg/kg qd x 14, s.c.): 144 ± 13 mm^3
Tumor volume (Mean ± SEM) (Day 9, Cpd. 1 1 mg/kg qd x 14, sc): 65 ± 4 mm^3
Tumor volume (Mean ± SEM) (Day 12, Cpd. 1 0.3 mg/kg qd x 14, s.c.): 131 ± 15 mm^3
Tumor volume (Mean ± SEM) (Day 12, Cpd. 1 1 mg/kg qd x 14, sc): 38 ± 4 mm^3
Tumor volume (Mean ± SEM) (Day 14, Cpd. 1 0.3 mg/kg qd x 14, s.c.): 171 ± 32 mm^3
Tumor volume (Mean ± SEM) (Day 14, Cpd. 1 1 mg/kg qd x 14, sc): 15 ± 5 mm^3
Tumor volume (Mean ± SEM) (Day 16, Cpd. 1 0.3 mg/kg qd x 14, s.c.): 198 ± 36 mm^3
Tumor volume (Mean ± SEM) (Day 16, Cpd. 1 1 mg/kg qd x 14, sc): 28 ± 7 mm^3
